# Whole data set: some 33,000 sequences, median “E-score (-0.5 to 0.5)” near -0.017, cut for the highest 2% near 0.3. Some of the results follow.
# Target: T1, Sut1 (UniProt P53032)
# T1 sequence: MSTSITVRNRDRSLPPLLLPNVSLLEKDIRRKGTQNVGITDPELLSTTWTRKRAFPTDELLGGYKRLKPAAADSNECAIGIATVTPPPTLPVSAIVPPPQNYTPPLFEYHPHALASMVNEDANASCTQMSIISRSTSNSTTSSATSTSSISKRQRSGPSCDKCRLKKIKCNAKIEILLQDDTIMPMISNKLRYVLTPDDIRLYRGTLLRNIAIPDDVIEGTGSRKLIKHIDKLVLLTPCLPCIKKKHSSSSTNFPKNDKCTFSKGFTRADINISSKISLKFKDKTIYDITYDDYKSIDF
# Experiment: PBM E-score (8-mer binding enrichment) (E-score (-0.5 to 0.5)); higher = stronger / more preferred TF binding; most listed sequences are background and not binding sites
# Settings: protein concentration: 200 nM; construct: GST-full length
# Outline: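 Yeast transcription factors carrying a GST tag, as full-length proteins or DNA-binding domains, were produced by PURExpress in vitro transcription/translation. About 100-200 nM protein was applied to universal all-10-mer Agilent arrays, double-stranded by primer extension on fresh or once-stripped slides. Bound protein was detected with fluorescent anti-GST, and scans were normalised with masliner. The Universal PBM Analysis Suite gave each ungapped eight-base word, pooled with its reverse complement, an E-score, a modified Wilcoxon-Mann-Whitney statistic.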
row,Sequence,PBM E-score
1,ACGGTCGC,-0.254
2,AGCGCACC,-0.0534
3,GATTCACC,0.0355
4,GTCGACCA,-0.216
5,AGGCTACT,-0.136
6,AGGGTGTA,-0.119
7,CTGGCCCC,-0.205
8,CTACTGGC,-0.24
9,GGTCCACA,-0.325
10,AACACTCG,0.0637
11,AAAGGACC,0.00629
12,CTCTGAGC,-0.225
13,ATGACCAA,0.0389
14,CTCCAGCA,-0.173
15,AATAGCGC,0.0508
16,GGATAGCC,0.0369
17,GCCCCTAC,-0.327
18,AGTTAAAA,0.285
19,ACAAGGTA,0.0911
20,CCGAACAC,0.195
21,AAGAGAAT,0.0867
22,ATTGCTAC,0.111
23,TCGTAAGA,0.0115
24,GTGTAACA,-0.025
25,CGGGAACC,-0.174

row,Sequence,PBM E-score
1,AAGTGTTC,0.0702
2,AAGTATGA,-0.00985
3,GTAGTCAA,0.0841
4,GACTTGGA,-0.0651
5,AATTCCAT,0.0698
6,CGGTCTGC,-0.19
7,CGACGAAA,0.0757
8,GATAACCC,-0.0815
9,ATTGTCCC,-0.108
10,ACCCGGTG,-0.224
11,CAAATGGC,0.0392
12,ACGATGAA,0.0815
13,ACGGTGGC,-0.198
14,AAAGAAGA,0.0444
15,CGTTGGAC,-0.218
16,AACGCAGG,-0.129
17,CCGGTATC,0.00301
18,GTACTTCA,0.234
19,CTATCGAA,0.115
20,AACCACCG,0.0748
21,ACGCGGAA,0.112
22,ACCGTAGA,0.0336
23,CGTACACG,-0.134
24,AAGGGCGG,-0.0711
25,GACATTTA,0.0718

row,Sequence,PBM E-score
1,CATCATCA,0.0301
2,AGCACTCA,-0.0584
3,ACGACACC,-0.214
4,CATCTCAG,-0.0547
5,CATGCAAA,0.0375
6,CAGCTGCG,-0.278
7,CCAACCTA,0.0103
8,CACCATAG,-0.221
9,CATAACAC,0.0299
10,GGCCAAAA,-0.0526
11,AGATGCGG,-0.0079
12,AAATTCAA,0.261
13,ACACTACT,0.0448
14,CGAATCCC,0.073
15,CATCCTAA,0.0282
16,ACACAAGC,-0.056
17,TGACTTAA,0.153
18,ACTGCCAG,-0.114
19,GGTCTTAA,-0.0856
20,AACACGTG,-0.0381
21,ATACCCAT,-0.0242
22,CTTTGTAC,-0.0681
23,TCTTGAAA,0.267
24,CTAGGCCA,-0.145
25,GAGAATAC,0.0703

row,Sequence,PBM E-score
1,CATGACAA,-0.00952
2,CCTCTAGC,-0.219
3,ACGCCATA,-0.131
4,CAGCCAGG,-0.296
5,AAGCCGCG,-0.0669
6,CCCCGTCC,-0.194
7,CCGCATGA,-0.0793
8,AATGGACC,0.12
9,ATAGTATC,0.213
10,ACCTGATG,-0.238
11,AGCAAGTA,-0.079
12,ACATTTGC,0.0426
13,ACAGAATG,-0.116
14,AAAACGCA,-0.0411
15,GGCCGCTA,-0.153
16,ACAACCCG,0.0142
17,AATTCGGG,0.17
18,AAAGCCAG,-0.0144
19,AGGGTTAA,0.00212
20,CTGCTATC,0.134
21,GGTCTTGA,-0.0986
22,CTGAGGAA,-0.147
23,CTTTCGGA,0.395
24,GAGCATTA,0.00341
25,AGGAACGC,-0.23

row,Sequence,PBM E-score
1,ACTACGGG,-0.0434
2,GCCTGAGC,-0.353
3,ACGTGCAC,-0.14
4,ATGGGGGG,-0.324
5,GTGGCAAA,-0.17
6,CTGAGCCC,-0.252
7,ATCTCCTA,-0.0274
8,CTCTCTAA,-0.108
9,CAATAGAA,0.0731
10,AGGTCTCC,-0.115
11,ACTACACC,0.0323
12,ACCCGATC,-0.179
13,CACCTAGG,-0.145
14,AAGTGCAG,-0.298
15,ACAACTGT,-0.138
16,CTAGCATC,-0.0352
17,AAGAGCTC,-0.108
18,CGGGACGC,-0.229
19,AGTCAATC,0.0394
20,AAGAGGGT,-0.161
21,AATTTGGG,-0.0119
22,ACTGCGAG,-0.185
23,AGTGCCTA,-0.191
24,AACTCGAC,-0.0444
25,AGAGCGCA,-0.306

row,Sequence,PBM E-score
1,ATCCCAAT,0.0805
2,ATGTATAG,0.0664
3,CGCGTCCC,-0.0434
4,ATTGCCTA,-0.25
5,AGTTCGTC,-0.00915
6,CTGCGTCA,-0.0676
7,CACCGGCA,0.00573
8,GTTAAGGA,0.0323
9,AGTAATTG,0.0745
10,ACTGGGCT,-0.0255
11,CTTGCCTA,-0.0357
12,AGACTGAC,0.0324
13,ACGAGATC,0.0427
14,GCACGCGC,-0.057
15,AGGCTTCG,-0.0165
16,GATCTTAA,0.149
17,ACGCTCCG,0.0842
18,GACACGTC,-0.169
19,CTTCAAGA,0.042
20,GATCTTAC,-0.106
21,AGCGAGCG,-0.031
22,GATATTAA,0.285
23,GCTGAAGC,-0.0969
24,AAGCTCAA,-0.0002
25,CTCTCTTC,-0.0837

row,Sequence,PBM E-score
1,AACTTTAG,0.189
2,CGACATGC,-0.0641
3,AGTTACGA,0.165
4,AGGCGGAC,0.142
5,AATACACG,0.0728
6,CGAGGCGA,-0.082
7,AGCCCTCC,-0.265
8,GCACACTA,-0.201
9,TGCTAGCA,0.0232
10,CGCTTCTA,0.181
11,CCCGAAGG,-0.0908
12,CCGCCTTC,-0.0906
13,GCGTTTAA,0.034
14,AAGTGCGA,0.00733
15,CCACTGTC,-0.241
16,AGTTAAAG,0.0654
17,ACCATCTG,-0.215
18,CCTTCCTA,-0.218
19,CGCGCGAA,-0.0343
20,CCAGGAAA,0.0848
21,AGAACGCG,-0.0274
22,AAGCGAAA,0.137

# — the supplement of paper PMC3334620
